Data as given in PubChem BioAssay (NCATS).
The other results are listed elsewhere or left out. Further columns of the screen follow, without active or inactive calls. Potencies come from curve fits of mixed quality, noted in brackets.
Tags tell the direction and shape of the fitted curve.

Assay: qHTS drug screen for cell cycle checkpoint inhibitors in PARPi-resistant BRCA-mutant ovarian cancer cell lines. (AID 1963452)
Details: PEO1/OlaR viability, CellTiter-Glo luminescence, 96 h; measured here: PEO1 parental viability
Excerpt: Women's Malignancies Branch, Center for Cancer Research (CCR),
National Cancer Institute (NCI), National Institutes of Health (NIH), Bethesda, MD
Poly (ADP-ribose) polymerase inhibitors (PARPis) have changed the treatment paradigm in breast cancer gene (BRCA) - mutant high-grade serous ovarian carcinoma (HGSC). However, most patients eventually develop resistance to PARPis, highlighting an unmet need for improved therapeutic strategies. Using high-throughput drug screens, we identified ataxia telangiectasia and rad3-related protein/checkpoint kinase 1 (CHK1) pathway inhibitors as cytotoxic and further validated the activity of the CHK1 inhibitor (CHK1i) prexasertib in PARPi-sensitive and -resistant BRCA-mutant HGSC cells and xenograft mouse models. CHK1i monotherapy induced DNA damage, apoptosis, and tumor size reduction. We then conducted a phase 2 study (NCT02203513) of prexasertib in patients with BRCA-mutant HGSC. The treatment was well tolerated but yielded an objective response rate of 6% (1 of 17; one partial response) in patients with previous PARPi treatment. […] BRCA reversion mutation in previously PARPi-treated BRCA-mutant patients was not associated with resistance to CHK1i.
Among others, 1082 oncology drugs, both approved and investigational, were prioritized based on their status in clinical trial development. […] Drugs with average Z-AUC values less than -1.0 in all three cell lines were classified as "hits" resulting in 151 oncology drug hits. The screen also confirmed cross-resistance between olaparib and other PARPis (rucaparib, niraparib, and talazoparib) in PARPi-resistant PEO1/OlaR and PEO4.
[1] G. L. Lin, K. M. Wilson, M. Ceribelli, B. Z. Stanton, P. J. Woo, S. Kreimer, E. Y. Qin, X. Zhang, J. Lennon, S. Nagaraja, P. J. Morris, M. Quezada, S. M. Gillespie, D. Y. Duveau, A. M. Michalowski, P. Shinn, R. Guha, M. Ferrer, C. Klumpp-Thomas, S. Michael, C. McKnight, P. Minhas, Z. Itkin, E. H. Raabe, L. Chen, R. Ghanem, A. C. Geraghty, L. Ni, K. I. Andreasson, N. A. Vitanza, K. E.Warren, C. J. Thomas, M. Monje, Therapeutic strategies for diffuse midline glioma from high-throughput combination drug screening. Sci. Transl. Med. 11, (2019).
[2] T. M. Yamamoto, A. McMellen, Z. L. Watson, J. Aguilera, R. Ferguson, E. Nurmemmedov, T. Thakar, G. L. Moldovan, H. Kim, D. M. Cittelly, A. M. Joglar, E. P. Brennecke, H. Wilson, K. Behbakht, M. J. Sikora, B. G. Bitler, Activation of Wnt signaling promotes olaparib resistant ovarian cancer. Mol. Carcinog. 58, 1770 - 1782 (2019).
PROTOCOL TABLE (as described by Inglese J, Shamu CE and Guy RK. 2007)
SEQUENCE No. (e.g., 1, 2, 3, etc.); […] (e.g., Cells, Incubation, Reagent, etc.); VALUE; DESCRIPTION.
1; Compounds; 20nL; 1536-well white tissue culture-treated plates.
2; Cells; 5 uL; PEO1, PEO4, and PEO1/OlaR cells at 600 cells per well.
3; Incubation; 96 hr; 37C, 95% humidity, 5% CO2.
4; Reagent; 3 uL; CellTiter-Glo (Promega).
5; Incubation; 15 min; room temperature.
6; Detection; Luminescence, PHERAstar (BMG Labtech) plate reader.
NOTES (numbers refer to Sequence numbers above)
1. MIPE 5.0 compounds were acoustically dispensed by Echo Acoustic Liquid Handler (Beckman Coulter Life Sciences). Each compound was plated at an 11-point concentration range with 1:3 dilution. Bortezomib, a proteasome inhibitor (final concentration, 20 uM), was used as a positive.
2. PEO1, PEO4, and PEO1/OlaR were trypsinized and dispensed in 5 uLof growth medium using a Multidrop Combi dispenser at a density of 600 cells per well to allow compounds to be present during the exponential growth phase.
3. Plates were incubated for 96 hours at standard incubator conditions and covered by a stainless steel gasketed lid to prevent evaporation.
4. Three microliters of CellTiter-Glo (Promega) were added to each well.
5. Plates were incubated at room temperature for 15 min with a stainless-steel lid in place.
6. Luminescence readings were taken using PHERAstar (BMG Labtech). […]
In the case of `CN(C)C/C=C/C(=O)Nc1cc2c(Nc3ccc(F)c(Cl)c3)ncnc2cc1O[C@H]1CCOC1`, the AC50 is reported as 4900 nM [falling, partial curve, poor fit].
With `Cc1cc(OCCCc2c3n(c4c(-c5c(C)nn(C)c5C)c(Cl)ccc24)[C@H](C)CN(c2cn(C)c4ccc(C(=O)O)cc24)C3=O)cc(C)c1Cl` the AC50 was 13800 nM [falling, partial curve].
For `C=CC(=O)Nc1cc(Nc2nccc(-c3cn(C)c4ccccc34)n2)c(OC)cc1N(C)CCN(C)C`, the AC50 was 19500 nM [falling, partial curve].
With `Cc1cnc(-c2ccccc2C(C)C)nc1NCc1ccc(-n2ccnn2)cc1` the AC50 was 19500 nM [falling, single point].
In the case of `C[C@@H](Nc1ncnc2[nH]c(-c3ccc(O)cc3)cc12)c1ccccc1`, the AC50 is reported as 19500 nM [falling, single point].
For `CCC(=O)N1CCN(c2ccc(-n3c(=O)ccc4cnc5ccc(-c6cnc7ccccc7c6)cc5c43)cc2C(F)(F)F)CC1`, the AC50 was 213 nM [falling, full curve].
For `NS(=O)(=O)c1ccc(S(=O)(=O)Nc2cccc3c(Cl)c[nH]c23)cc1`, the AC50 was 5490 nM [falling, partial curve].
For `CCS(=O)(=O)Nc1ccc2[nH]c(O)c(C(=Nc3ccc(CN4CCCCC4)cc3)c3ccccc3)c2c1`, the AC50 was 2190 nM [falling, partial curve].
With `O=C(c1ccc(Nc2nccc(-c3cc4ccccc4s3)n2)cc1)N1CCC(N2CCCC2)CC1` the AC50 was 15500 nM [falling, partial curve].
For `CCCCc1ccc2nc(NC(=O)OC)[nH]c2c1`, the AC50 was 17.4 nM [falling, full curve].
With `O=C(c1ccc(F)cc1)N1CCC[C@H](c2nc(-c3ccc(F)cc3)no2)C1` the AC50 was 15500 nM [falling, partial curve].
With `CC(C)Nc1cc(-c2c[nH]c(C(=O)N[C@H](CO)c3cccc(Cl)c3)c2)c(Cl)cn1` the AC50 was 1950 nM [falling, full curve].
With `N#Cc1ccc(COC[C@H]2O[C@@H](n3c(NCc4ccc(Cl)c(Cl)c4)nc4c(N)ncnc43)[C@H](O)[C@@H]2O)cc1` the AC50 was 4360 nM [falling, full curve].
For `O=[N+]([O-])c1ccc(O)c2ncccc12`, the AC50 was 6160 nM [falling, partial curve].
With `CCS(=O)(=O)Nc1ccc(Oc2ccc(F)cc2F)c(-c2cn(C)c(=O)c3[nH]ccc23)c1` the AC50 was 155 nM [falling, full curve].
In the case of `Cc1noc(-c2ccc(-c3ccc(C4(C(=O)O)CC4)cc3)cc2)c1NC(=O)O[C@H](C)c1ccccc1`, the AC50 is reported as 13800 nM [falling, single point].
In the case of `O=C(/C=C\n1cnc(-c2cc(C(F)(F)F)cc(C(F)(F)F)c2)n1)N1CC(F)(F)C1`, the AC50 is reported as 195 nM [falling, full curve].
For `Cc1ccc(-c2ncn(-c3ccc(Nc4nccc(-c5cccc(N6CCOCC6)c5)n4)cc3)n2)cn1`, the AC50 was 1230 nM [falling, partial curve, poor fit].
For `Cn1c(=O)n(-c2ccc(C(C)(C)C#N)cc2)c2c3cc(-c4cnc5ccccc5c4)ccc3ncc21`, the AC50 was 56.4 nM [falling, full curve].
In the case of `CC[C@@]1(O)C(=O)OCc2c1cc1n(c2=O)Cc2cc3c(CN(C)C)c(O)ccc3nc2-1`, the AC50 is reported as 245 nM [falling, full curve].

Same assay, conditions: PEO1/OlaR viability, CellTiter-Glo luminescence, 96 h; measured here: PEO4 viability
For `Nc1nccc(-c2c(-c3ccc(F)cc3)ncn2C2CCN(Cc3ccon3)CC2)n1`, the AC50 was 12300 nM [falling, partial curve].
In the case of `CN(C)C/C=C/C(=O)Nc1cc2c(Nc3ccc(F)c(Cl)c3)ncnc2cc1O[C@H]1CCOC1`, the AC50 is reported as 3090 nM [falling, full curve].
With `Cc1cc(OCCCc2c3n(c4c(-c5c(C)nn(C)c5C)c(Cl)ccc24)[C@H](C)CN(c2cn(C)c4ccc(C(=O)O)cc24)C3=O)cc(C)c1Cl` the AC50 was 11000 nM [falling, partial curve].
In the case of `C=CC(=O)Nc1cc(Nc2nccc(-c3cn(C)c4ccccc34)n2)c(OC)cc1N(C)CCN(C)C`, the AC50 is reported as 15500 nM [falling, partial curve, poor fit].
With `C[C@@H](Nc1ncnc2[nH]c(-c3ccc(O)cc3)cc12)c1ccccc1` the AC50 was 19500 nM [falling, partial curve].
For `CCC(=O)N1CCN(c2ccc(-n3c(=O)ccc4cnc5ccc(-c6cnc7ccccc7c6)cc5c43)cc2C(F)(F)F)CC1`, the AC50 was 134 nM [falling, full curve].
With `NS(=O)(=O)c1ccc(S(=O)(=O)Nc2cccc3c(Cl)c[nH]c23)cc1` the AC50 was 616 nM [falling, full curve].
For `CCS(=O)(=O)Nc1ccc2[nH]c(O)c(C(=Nc3ccc(CN4CCCCC4)cc3)c3ccccc3)c2c1`, the AC50 was 1950 nM [falling, partial curve, poor fit].
In the case of `O=C(c1ccc(Nc2nccc(-c3cc4ccccc4s3)n2)cc1)N1CCC(N2CCCC2)CC1`, the AC50 is reported as 2750 nM [falling, full curve].
For `CCCCc1ccc2nc(NC(=O)OC)[nH]c2c1`, the AC50 was 43.6 nM [falling, full curve].
With `O=C(c1ccc(F)cc1)N1CCC[C@H](c2nc(-c3ccc(F)cc3)no2)C1` the AC50 was 15500 nM [falling, single point].
With `CC(C)Nc1cc(-c2c[nH]c(C(=O)N[C@H](CO)c3cccc(Cl)c3)c2)c(Cl)cn1` the AC50 was 2190 nM [falling, full curve].
With `N#Cc1ccc(COC[C@H]2O[C@@H](n3c(NCc4ccc(Cl)c(Cl)c4)nc4c(N)ncnc43)[C@H](O)[C@@H]2O)cc1` the AC50 was 7760 nM [falling, partial curve].
With `O=[N+]([O-])c1ccc(O)c2ncccc12` the AC50 was 12300 nM [falling, partial curve, poor fit].
For `CCS(=O)(=O)Nc1ccc(Oc2ccc(F)cc2F)c(-c2cn(C)c(=O)c3[nH]ccc23)c1`, the AC50 was 110 nM [falling, full curve].
With `Cc1noc(-c2ccc(-c3ccc(C4(C(=O)O)CC4)cc3)cc2)c1NC(=O)O[C@H](C)c1ccccc1` the AC50 was 15500 nM [falling, single point].
With `O=C(/C=C\n1cnc(-c2cc(C(F)(F)F)cc(C(F)(F)F)c2)n1)N1CC(F)(F)C1` the AC50 was 549 nM [falling, full curve].
In the case of `Cc1ccc(-c2ncn(-c3ccc(Nc4nccc(-c5cccc(N6CCOCC6)c5)n4)cc3)n2)cn1`, the AC50 is reported as 1230 nM [falling, full curve].
With `Cn1c(=O)n(-c2ccc(C(C)(C)C#N)cc2)c2c3cc(-c4cnc5ccccc5c4)ccc3ncc21` the AC50 was 17.8 nM [falling, full curve].
With `CC[C@@]1(O)C(=O)OCc2c1cc1n(c2=O)Cc2cc3c(CN(C)C)c(O)ccc3nc2-1` the AC50 was 616 nM [falling, full curve].
